According to the RNAGym collection of RNA variant scans (doi:10.1093/nar/gkz1192):
Read counts are not given, so values of variants with three or more changes are uncertain.

B1: CPEB3 Ribozyme (parent)
chain: UAACAGGGGGCCACAGCAGAAGCGUUCACGUCGCAGCCCCUGUCAGAUUCUGGUGAAUCUGCGAAUUCUGCUGUAUAUCUC

Variants of: B1
Test: self-cleavage, relative activity (ratio to wild type); higher = more cleavage; in vitro, sequencing
Summary of the method: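 Relative activity was defined as the cleaved/total read fraction for a variant divided by the same fraction for the unmutated ribozyme. CPEB3 self-cleaving ribozyme libraries were made by rounds of error-prone PCR, barcoded, and transcribed in vitro with T7 RNA polymerase for 5 hours at 37°C, and cleavage ran through transcription plus a 15 min DNase I step before EDTA. Illumina sequencing of template-switched reverse transcripts gave the reads, and DNA sequencing mapped the barcodes. Averages come from three batches, using variants with at least 5 reads.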

| Variant | self-cleavage |
| --- | --- |
| U25C U43A U54A | 0.13 |
| U26A U31C A47G U51C U54C A56U U60A | 0.17 |
| U26A C32A U60C | 0.1 |
| U25C U41C U78C | 0.16 |
| U26A U54C U66C U80C | 0.63 |
| U26A A28C U76A U80C | 0.46 |
| U26A G53C U72A | 0.65 |
| U25C U69C U72A | 0.12 |
| U26C A28G U31A U67C | 0.05 |
| U26A C40U A57G U72A U80C | 0.33 |
| U26A A35G C38U A75U | 1.31 |
| U26C A28G A45U U69C | 0.12 |
| U26A U72A U78C | 0.81 |
| U26A A35G U43C U49C A57G U69C C71A | 0.05 |
| U26A U60A U69A U76C | 0.19 |
| U26A U49A U66C U78C | 0.1 |
| U26A U41C A57G | 0.54 |
| U25C U49C U78C | 0.1 |
| U25C U43A U60A U69A U78C U80C | 0.06 |
| U26C A28G C40U U54C U58C U60C | 0 |
| U26A U31A U67C U76G A77G | 0.1 |

| Variant | self-cleavage |
| --- | --- |
| U26A G30A U69G | 0.09 |
| U26C A28G U60C | 0.14 |
| U26A A35G U48C U78C | 1.17 |
| U26A U48C A57G U69A | 0.41 |
| U26A U51G U54G U80C | 0.31 |
| U25G G42U A64G | 0.25 |
| U26A A65G U80C | 0.43 |
| U26A C38U U74A | 1.15 |
| U25G A45G U60C U67C | 0.1 |
| U25G U51C A75U | 0.32 |
| U26A U43C U54C U69A | 0.09 |
| U26A G30A A57G U69C | 0.14 |
| U25G A35G A64U | 0.26 |
| U25C U43C A45U U49C U78C | 0.21 |
| U26A C32A U41C U54C A56G A65G U80C | 0.06 |
| U25G G36A A56G U74A | 0.22 |
| U26A U31C A35G | 1.05 |
| U26A U31C A35U | 0.49 |
| U26C A28G U76A | 0.14 |
| U26A U41A U69C | 0.13 |
| U26A A28U U72C | 0.88 |

| Variant | self-cleavage |
| --- | --- |
| U25C U54C U67C | 0.07 |
| U26A A28G U54C | 0.38 |
| U25C U51C G53A | 0.27 |
| U25C U48C U58A U80C | 0.42 |
| U26A U43C U60G A64G U66C | 0.08 |
| U26A A56G C62G C71U U74C | 0.12 |
| U26C A28G C44U U66C U72A | 0.05 |
| U26C A28G U31A U49C U58C A65G | 0.12 |
| U26A A45U G63A U67A U80A | 0.15 |
| U26A A35U U74A U80A | 1.02 |
| U26A A56G U69A | 0.41 |
| U26A A56U U60C U72C | 0.2 |
| U25C U43C G70A | 0.17 |
| U26C A28G A45G U60A | 0.15 |
| U25C U67C U69A | 0.47 |
| U25C U49C U69C U72C | 0.07 |
| U26A A28C A57G U78C | 0.33 |
| U26A C62U G73A | 0.25 |
| U26A U54C A56U U72A | 0.16 |
| U25G A45G A56G U74A | 0.32 |
| U26A U51A U74A | 1.33 |

| Variant | self-cleavage |
| --- | --- |
| U25G U43C A57G U72C | 0.25 |
| U26A A47G C59U A64G | 0.41 |
| U25G U31A G33A U41A A64G A77U | 0.09 |
| U26A G30A U78C | 0.16 |
| U25C U43C U54G U60C | 0.11 |
| U26A U31C U60C U72C | 0.14 |
| U26A A28G A57G | 0.13 |
| U25C U43C U48C A65G | 0.17 |
| U26A A45G A64G | 0.51 |
| U26A A56C U67C | 0.15 |
| U25C U43A A45U A47U U58C U78C | 0.08 |
| U25C U60A A75G | 0.11 |
| U26A C32U A57G A64G A75G U80C | 0.02 |
| U25C U43C U66A | 0.14 |
| U25C U72C U74A A77G | 0.33 |
| U25C U60C U69C | 0.25 |
| U26C A28G A35G G36A A64G U74C | 0.21 |
| U25C U54C A65C U67C | 0.16 |
| U25G G63C A64C U80C | 0.08 |
| U26A A35U U41C A77U | 0.22 |
